{"source": "PubChem BioAssay AID2112", "about": "(National Center for Advancing Translational Sciences (NCATS), 2009)", "note": "The whole screen tested about 240,000 compounds, of which about 15 (0.006%) were called active. This list was built around the results that the source calls inconclusive (neither active nor inactive); the mix of calls is not that of the screen. The call rests on the fitted dose curve; in most records, active means well fitted inhibition curve with a large enough effect; inconclusive means small, poorly fitted or top-dose-only effect, or effect the other way, or another doubt; inactive means no such curve, though single readings can be large or run the other way. No potency is given beside an inconclusive call; the fits are too rough. Potency means the concentration at half of the fitted maximal effect; tags describe the fitted curve by direction and shape."}
{"target": "Lysosomal alpha-glucosidase (Homo sapiens) (UniProt P10253)", "experiment": "qHTS Assay for Inhibitors and Activators of Human alpha-Glucosidase From Spleen Homogenate;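 on activity change, negative = inhibition: 0% = enzyme with vehicle and -100% = no enzyme basal signal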", "details": "4-MU-alpha-glucoside fluorescence; series mostly up to 79.9 µM; activity change, negative = inhibition: at the top concentration", "procedure,_shortened": "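AC50 values come from Hill-equation fits of concentration-response data, normalized to no-enzyme and full-activity controls. Enzyme source: 1 ug human spleen homogenate; 1 mM fluorogenic 4-MU glucoside, pH 5.0 citrate buffer, 37 C, 40 min.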"}
{"smiles": "CCC(C)n1c(-c2cccs2)nc2nc3ccccc3nc21", "note": "(centres undefined)", "Potency": "inconclusive [activator, single point]"}
{"smiles": "COc1cccc(CNc2ccc(Br)cn2)c1O", "activity change, negative = inhibition": "inactive: -3.33%"}
{"smiles": "O=C(OC1Cc2c(O)cc(O)cc2OC1c1cc(O)c(O)c(O)c1-c1c(C2Oc3cc(O)cc(O)c3CC2OC(=O)c2cc(O)c(O)c(O)c2)cc(O)c(O)c1O)c1cc(O)c(O)c(O)c1", "note": "(centres undefined)", "activity change, negative = inhibition": "inactive: -7.5%"}
{"smiles": "CCSc1ccc(NC(=O)c2cccnc2)cc1", "Potency": "inconclusive [inhibitor, single point]"}
{"smiles": "CCC12OC(=N)C(C#N)(C1C)C(C#N)(C#N)C(c1ccccc1)O2", "note": "(centres undefined)", "Potency": "inconclusive [activator, single point]"}
{"smiles": "COc1ccc(-c2cc(=NCCCCCC(=O)O)c3cc(C)ccc3o2)cc1", "Potency": "inconclusive [activator, partial curve]"}
{"smiles": "O=C(Nc1ccc(N2CCOCC2)cc1)c1cccc(S(=O)(=O)N2CCCC2)c1", "Potency": "inconclusive [inhibitor, full curve, poor fit]"}
{"smiles": "Cc1cc(=O)oc2c(CN3CCC(C)CC3)c(O)c(Cl)cc12", "Potency": "inconclusive [activator, partial curve]"}
{"smiles": "CCOC(=O)C1(CC)NC(c2ccco2)C2C(=O)N(CC)C(=O)C21", "note": "(centres undefined)", "Potency": "inconclusive [inhibitor, full curve, poor fit]"}
{"smiles": "CCOC(=O)c1cc2c(=O)n3ccccc3nc2n(CC2CCCO2)c1=NC(C)=O", "note": "(centres undefined)", "Potency": "inconclusive [activator, partial curve]"}
{"smiles": "Oc1ccc(Cl)cc1C=NCCc1ccccc1", "Potency": "inconclusive [inhibitor, full curve, poor fit]"}
{"smiles": "CCCCN(CC)Cc1c(O)ccc2c3c(c(=O)oc12)CCC3", "Potency": "inconclusive [activator, partial curve]"}
{"smiles": "COc1ccc(-c2cc(=NCCC(=O)O)c3cc(C)ccc3o2)cc1", "Potency": "inconclusive [activator, partial curve]"}
{"smiles": "CCC(=O)C(C(=O)OC)[C@H](CCc1ccccc1)NC(=O)OC", "note": "(some centres undefined)", "activity change, negative = inhibition": "inactive: -8.64%"}
{"smiles": "N#Cc1c(C(F)(F)F)cc(-c2ccccc2)[nH]c1=O", "Potency": "inconclusive [activator, full curve]"}
{"smiles": "O=C(/C=C/c1ccc(O)c(O)c1)c1ccccc1O", "activity change, negative = inhibition": "inactive: -2.95%"}
{"smiles": "Cc1cc(C)cc(-n2ccnc2SCC(=O)Nc2ccc3c(c2)OCCO3)c1", "Potency": "inconclusive [inhibitor, full curve, poor fit]"}
{"smiles": "O=C(Nc1cc(S(=O)(=O)N2CCOCC2)ccc1N1CCCC1)c1cc(=O)[nH]c2ccccc12", "Potency": "active: 10 µM"}
{"smiles": "Cc1cc(C)[n+](-c2ccc(C(C)C)cc2)c2[nH]c(=O)[nH]c(=O)c12", "Potency": "inconclusive [activator, partial curve]"}
{"smiles": "CCOc1ccc(S(=O)(=O)N2CCCCCC2)cc1", "Potency": "inconclusive [inhibitor, partial curve]"}
{"smiles": "CCCOc1ccc(-c2nc(C#N)c(NCCCn3ccnc3)o2)cc1", "activity change, negative = inhibition": "inactive: 7.93%"}
{"smiles": "Nc1nonc1-n1nnc(C(=O)N/N=C/c2ccc(Br)cc2)c1CSC1=NCCS1", "activity change, negative = inhibition": "inactive: 5.01%"}
{"smiles": "O=C(NCCN1CCOCC1)C1(C(F)(F)F)C/C(=C\\CCO)CCCO1", "note": "(centres undefined)", "activity change, negative = inhibition": "inactive: 0.535%"}
{"smiles": "FC(F)(F)c1ccccc1-c1nc(NCc2cccs2)c2ccccc2n1", "activity change, negative = inhibition": "inactive: 10.4%"}
{"smiles": "Cc1cc(=O)oc2cc(OC(=O)c3cncc(Br)c3)ccc12", "Potency": "inconclusive [activator, partial curve]"}
{"smiles": "Cc1ccc(S(=O)(=O)NCCC(=O)Oc2ccc3ccc(=O)oc3c2)cc1", "Potency": "inconclusive [activator, partial curve]"}
{"smiles": "NC(=O)c1cc2ccc(O)cc2oc1=Nc1ccccc1", "Potency": "inconclusive [activator, single point]"}
{"smiles": "CC(=O)N1CC[N+](C)(C)CC1", "Potency": "inactive"}
{"smiles": "CCOC(=O)N1CCN(C(=O)CCCOc2ccccc2)CC1", "Potency": "inconclusive [inhibitor, single point]"}
{"smiles": "CC(=O)Oc1ccc2c(=O)c(Oc3ccccc3)c(C)oc2c1OC(C)=O", "activity change, negative = inhibition": "inactive: -9.03%"}
{"smiles": "Cc1cc(NC(=O)NC2(C(F)(F)F)Oc3ccc(Cl)cc3O2)no1", "note": "(centres undefined)", "activity change, negative = inhibition": "inactive: -2.2%"}
{"smiles": "CCNc1ncc2ncc(=O)n(C[C@H]3CCCO3)c2n1", "Potency": "inconclusive [activator, single point]"}
{"smiles": "CCNc1nc(C)c2cc(Br)c(=O)n(CC)c2n1", "Potency": "inconclusive [activator, partial curve]"}
{"smiles": "CCOP(=O)(OCC)c1nc(-c2cccc3ccccc23)oc1NCc1ccc(OC)cc1", "Potency": "inconclusive [activator, single point]"}
{"smiles": "CCCNC(=O)Cn1c(=O)/c(=C\\c2ccc(-c3ccc([N+](=O)[O-])cc3)o2)s/c1=C\\C(=O)C(C)(C)C", "activity change, negative = inhibition": "inactive: -6.26%"}
{"smiles": "O=C(NNc1nc2cc3c(cc2s1)OCCO3)c1ccc(F)cc1", "activity change, negative = inhibition": "inactive: 2.44%"}
{"smiles": "COc1cccc(CN(C)c2nc(-c3cccs3)nc3ccccc23)c1", "activity change, negative = inhibition": "inactive: -2.72%"}
{"smiles": "COCCNc1cc(C)nc2c3c(C)cc(C)nc3nn12", "Potency": "inconclusive [activator, single point]"}
{"smiles": "CCOC(=O)c1c(N)n(C2CC(C)(C)NC(C)(C)C2)c2nc3ccccc3nc12", "Potency": "inconclusive [activator, single point]"}
{"smiles": "COc1cccc(-c2nc(-c3ccccn3)no2)c1", "activity change, negative = inhibition": "inactive: -4.57%"}
{"smiles": "NS(=O)(=O)c1ccc(N=Nc2c(O)[nH]c(=S)[nH]c2=O)cc1", "Potency": "inconclusive [inhibitor, single point]"}
{"smiles": "COc1ccc(OC)c(C=Nc2ccccc2-c2nc3ccccc3[nH]2)c1", "Potency": "inconclusive [activator, single point]"}
{"smiles": "CN(C)N=C1c2cc(S(=O)(=O)N3CCOCC3)ccc2-c2ccc(S(=O)(=O)N3CCOCC3)cc21", "Potency": "inconclusive [inhibitor, full curve]"}
{"smiles": "O=C(Cn1cc(SCc2ccc(Cl)cc2)c2ccccc21)N1CCOCC1", "Potency": "inconclusive [inhibitor, partial curve, poor fit]"}
{"smiles": "COc1ccccc1N=c1oc2cc(O)ccc2cc1C(N)=O", "Potency": "inconclusive [activator, single point]"}
{"smiles": "COC(=O)[C@@]1(Cc2ccc(OC)cc2)[C@H]2c3cc(C(=O)N4CCCC4)n(CCc4c[nH]c5cc(F)ccc45)c3C[C@H]2CN1C(=O)c1ccccc1", "activity change, negative = inhibition": "inactive: 3.4%"}
{"smiles": "CSc1cnc2c(=O)n(C)c(=O)[nH]c2n1", "Potency": "inconclusive [activator, partial curve]"}
{"smiles": "Cc1nc2ccccc2n1CCc1nc2c3ccccc3nc(=S)n2[nH]1", "activity change, negative = inhibition": "inactive: -6.2%"}
{"smiles": "CCCCN1C=C(C(=O)OC)C(c2ccccc2Cl)C(C(=O)OC)=C1", "Potency": "inconclusive [activator, partial curve]"}
{"smiles": "CC(C)(C)OC(=O)c1c(N)n(CCCN2CCCC2=O)c2nc3ccccc3nc12", "Potency": "inconclusive [activator, partial curve]"}
{"smiles": "CCSc1nnc(-c2cc3c(s2)-c2ccccc2CC3)o1", "Potency": "inconclusive [activator, single point]"}
{"smiles": "Cc1ccc2cc(/C=N/Nc3ccc(C(=O)O)cc3)c(Cl)nc2c1", "Potency": "inconclusive [activator, single point]"}
{"smiles": "CCOC(=O)c1cnc2cc(C)ccn2c1=O", "Potency": "inconclusive [activator, single point]"}
{"smiles": "Cc1cccc(C2=NN(c3ccccc3)[C@H](CO)[C@H]2C)c1", "Potency": "inconclusive [activator, partial curve]"}
{"smiles": "CCCC(=O)Oc1ccc2c(C)cc(=O)oc2c1", "Potency": "inconclusive [activator, partial curve]"}
{"smiles": "CCN1CCN(c2oc(/C=C/c3ccccc3)nc2C#N)CC1", "Potency": "inconclusive [activator, full curve]"}
{"smiles": "CCOC(=O)Nc1ccc2c(c1)Nc1ccccc1S2", "activity change, negative = inhibition": "inactive: 2.24%"}
{"smiles": "COc1ccc(/C=N/Nc2nc3ccccc3c(=O)[nH]2)cc1", "Potency": "inconclusive [activator, single point]"}
{"smiles": "CC(=O)N1CCc2cc(S(=O)(=O)NC(C(=O)Nc3nc(C)cs3)C(C)C)ccc21", "note": "(centres undefined)", "Potency": "inconclusive [inhibitor, single point]"}
{"smiles": "CCOc1ccc(Nc2nc(Cc3nnc(SCC(=O)NCc4ccco4)n3CC)cs2)cc1", "activity change, negative = inhibition": "inactive: 3.76%"}
{"smiles": "CCOC(=O)N1CCC(N2Cc3cccc(C(=O)Nc4ccc(OC)c(OC)c4)c3C2=O)CC1", "activity change, negative = inhibition": "inactive: -9.68%"}
{"smiles": "CCCCCCOc1ccc(CN2CCN(CCO)CC2)cc1", "Potency": "inconclusive [inhibitor, full curve, poor fit]"}
{"smiles": "COCCCn1c(N)c(C(=O)OCCOC)c2nc3ccccc3nc21", "Potency": "inconclusive [activator, single point]"}
{"smiles": "C=C(C)[C@]12C[C@@H](C)[C@@]34OC(Cc5ccccc5)(O[C@@H]1[C@@H]3C=C(COC(=O)Cc1cc(OC)c(O)cc1I)C[C@]1(O)C(=O)C(C)=C[C@@H]41)O2", "activity change, negative = inhibition": "inactive: -1.11%"}
{"smiles": "CCC1Oc2ccc(C)cc2N(CC(=O)NCc2cccc(OC)c2)C1=O", "note": "(centres undefined)", "Potency": "inconclusive [inhibitor, single point]"}
{"smiles": "CCOC(=O)c1cc2c(=O)n3ccccc3nc2n(CC2CCCO2)c1=NC(=O)/C=C/c1ccccc1", "note": "(centres undefined)", "Potency": "inconclusive [activator, partial curve]"}
{"smiles": "CC(=O)c1ccc(Nc2c3ccccc3cc3occc23)cc1", "activity change, negative = inhibition": "inactive: -0.853%"}
{"smiles": "O=C1C[C@H](c2ccccc2Cl)N1S(=O)(=O)c1ccccc1[N+](=O)[O-]", "activity change, negative = inhibition": "inactive: -8.01%"}
{"smiles": "O=C(O)c1ccc(-c2nc(-c3ccccc3)c(-c3ccccc3)[nH]2)cc1", "Potency": "inconclusive [activator, single point]"}
